{"source": "the supplement of paper PMC12355420", "note": "Counter-ions that a name gives are not always drawn. The list shows a part of the results. Single values are uncertain, as repeats are few or missing.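 Also: primary screen of an FDA-approved drug library in HeLa reporter cells in 96-well format, CellMask signal normalized to DMSO-treated wells set as 1, under 0.5 deemed highly cytotoxic.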", "data": [{"system": "HeLa VPS33A reporter cells", "test": "relative cell viability (CellMask signal) vs DMSO (fraction of DMSO); HeLa model of a glycosaminoglycan (GAG) storage disease; KI is knock-in and KO knock-out; SDC1 is syndecan 1; higher = less cytotoxic", "details": "50 µM; 24 h", "values": [{"smiles": "C/C(=C\\C(=O)OCCCCCCCCC(=O)O)C[C@@H]1OC[C@H](C[C@@H]2O[C@H]2[C@@H](C)[C@H](C)O)[C@@H](O)[C@H]1O", "note": "[Mupirocin]", "relative cell viability": 1.14}, {"smiles": "CC(C)C(=O)c1c(C(C)C)nn2ccccc12", "note": "[Ibudilast]", "relative cell viability": 0.986}, {"smiles": "Cc1ncc([N+](=O)[O-])n1CC(C)O", "note": "(centres undefined) [Secnidazole]", "relative cell viability": 0.968}, {"smiles": "Clc1ccccc1CN1CCc2sccc2C1", "note": "[Ticlopidine HCl]", "relative cell viability": 1.01}, {"smiles": "O=C1OC2(c3ccc(O)cc3Oc3cc(O)ccc32)c2ccccc21", "note": "[Fluorescein]", "relative cell viability": 1.02}, {"smiles": "OC(Cn1cncn1)(Cn1cncn1)c1ccc(F)cc1F", "note": "[Fluconazole]", "relative cell viability": 0.999}, {"smiles": "CS(=O)(=O)OCCCCOS(C)(=O)=O", "note": "[Busulfan]", "relative cell viability": 1.4}, {"smiles": "OC(CCN1CCCCC1)(c1ccccc1)C1CC2C=CC1C2", "note": "(centres undefined) [Biperiden HCl]", "relative cell viability": 0.726}, {"smiles": "NCCCC(O)(P(=O)(O)O)P(=O)(O)O", "note": "[Alendronate]", "relative cell viability": 0.984}, {"smiles": "C[n+]1cccc(C(=O)[O-])c1", "note": "[Trigonelline Hydrochloride]", "relative cell viability": 0.998}, {"smiles": "CCc1cc(/C(C)=N/OCc2ccc(C3CCCCC3)c(C(F)(F)F)c2)ccc1CN1CC(C(=O)O)C1", "note": "[BAF312 (Siponimod)]", "relative cell viability": 0.977}, {"smiles": "C[C@H]1O[C@@H](n2cc(F)c(=O)[nH]c2=O)[C@H](O)[C@@H]1O", "note": "[Doxifluridine]", "relative cell viability": 0.977}, {"smiles": "Cc1c(O)cccc1C(=O)N[C@@H](CSc1ccccc1)[C@H](O)CN1C[C@H]2CCCC[C@H]2C[C@H]1C(=O)NC(C)(C)C", "note": "[Nelfinavir]", "relative cell viability": 1.23}, {"smiles": "CC(=O)O[C@]1(C(C)=O)CC[C@H]2[C@@H]3CCC4=CC(=O)CCC4=C3[C@@H](c3ccc(N(C)C)cc3)C[C@@]21C", "note": "[Ulipristal acetate]", "relative cell viability": 1.19}]}]}
